Test results as given in patent publication US20200291008A1 (GLAXOSMITHKLINE INTELLECTUAL PROPERTY DEVELOPMENT LIMITED, priority 2017, published 2020).

Legend:
[1] = biological target: indoleamine 2, 3-dioxygenase (IDO1) (Homo sapiens, UniProt P14902); experiment: IDO1 PBMC RapidFire MS assay (kynurenine detection by mass spectrometry); format: cell-based; details: human PBMC stimulated with IFN-γ and LPS, 2 days, read-out: PBMC pIC50 (converted)
Method: Compounds of the present invention were tested via high-throughput cellular assays utilizing detection of kynurenine via mass spectrometry and cytotoxicity as end-points. […] Compounds with IDO1 inhibitory properties decreased the amount of kynurenine produced by the cells via the tryptophan catabolic pathway. Cellular toxicity due to the effect of compound treatment was measured using CellTiter-Glo® reagent (CTG) (Promega Corporation, Madison, Wis.), which is based on luminescent detection of ATP, an indicator of metabolically active cells.
In preparation for the assays, test compounds were serially diluted 3-fold in DMSO from a typical top concentration of 1mM or 5 mM and plated at 0.5 μL in 384-well, polystyrene, clear bottom, tissue culture treated plates with lids (Greiner Bio-One, Kremsmunster, Austria) to generate 11-point dose response curves. Low control wells (0% kynurenine or 100% cytotoxicity) contained either 0.5 μL of DMSO in the presence of unstimulated (-IFN-γ/-LPS) PBMCs for the mass spectrometry assay or 0.5 μL of DMSO in the absence of cells for the cytotoxicity assay, and high control wells (100% kynurenine or 0% cytotoxicity) contained 0.5 μL of DMSO in the presence of stimulated (+IFN-γ/+LPS) PBMCs for both the mass spectrometry and cytotoxicity assays.
Frozen stocks of PBMCs were washed and recovered in RPMI 1640 medium (Thermo Fisher Scientific, Inc., Waltham, Mass.) supplemented with 10% v/v heat-inactivated fetal bovine serum (FBS) (Thermo Fisher Scientific, Inc., Waltham, Mass.), and 1× penicillin-streptomycin antibiotic solution (Thermo Fisher Scientific, Inc., Waltham, Mass.). The cells were diluted to 1,000,000 cells/mL in the supplemented RPMI 1640 medium. 50 μL of either the cell suspension, for the mass spectrometry assay, or medium alone, for the cytotoxicity assay, were added to the low control wells, on the previously prepared 384-well compound plates, resulting in 50,000 cells/well or 0 cells/well respectively. IFN- y and LPS were added to the remaining cell suspension at final concentrations of 100 ng/ml and 50 ng/ml respectively, and 50 μL of the stimulated cells were added to all remaining wells on the 384-well compound plates. The plates, with lids, were then placed in a 37° C, 5% CO2 humidified incubator for 2 days.
Following incubation, the 384-well plates were removed from the incubator and allowed to equilibrate to room temperature for 30 minutes. For the cytotoxicity assay, CellTiter-Glo® was prepared according to the manufacturer's instructions, and 40 μL were added to each plate well. After a twenty minute incubation at room temperature, luminescence was read on an EnVision® Multilabel Reader (Perkin Elmer Inc., Waltham, Mass.). For the mass spectrometry assay, 10 μL of supernatant from each well of the compound-treated plates were added to 40 μL of acetonitrile, containing 10 μM of an internal standard for normalization, in 384-well, polypropylene, V-bottom plates (Greiner Bio-One, Kremsmunster, Austria) to extract the organic analytes. Following centrifugation at 2000 rpm for 10 minutes, 10 μL from each well of the acetonitrile extraction plates were added to 90 μL of sterile, distilled H2O in 384-well, polypropylene, V-bottom plates for analysis of kynurenine and the internal standard on the RapidFire 300 (Agilent Technologies, Santa Clara, Calif.) and 4000 QTRAP MS (SCIEX, Framingham, Mass.). MS data were integrated using Agilent Technologies' RapidFire Integrator software, and data were normalized for analysis as a ratio of kynurenine to the internal standard.

[2] = system: human peripheral blood mononuclear cells (PBMC); experiment: PBMC cytotoxicity assay (CellTiter-Glo); format: cell-based; details: 48 h, human PBMC stimulated with IFN-γ and LPS, 2 days, read-out: PBMC TOX pIC50 (converted)

UniProt P14902, sequence (P14902 whole entry): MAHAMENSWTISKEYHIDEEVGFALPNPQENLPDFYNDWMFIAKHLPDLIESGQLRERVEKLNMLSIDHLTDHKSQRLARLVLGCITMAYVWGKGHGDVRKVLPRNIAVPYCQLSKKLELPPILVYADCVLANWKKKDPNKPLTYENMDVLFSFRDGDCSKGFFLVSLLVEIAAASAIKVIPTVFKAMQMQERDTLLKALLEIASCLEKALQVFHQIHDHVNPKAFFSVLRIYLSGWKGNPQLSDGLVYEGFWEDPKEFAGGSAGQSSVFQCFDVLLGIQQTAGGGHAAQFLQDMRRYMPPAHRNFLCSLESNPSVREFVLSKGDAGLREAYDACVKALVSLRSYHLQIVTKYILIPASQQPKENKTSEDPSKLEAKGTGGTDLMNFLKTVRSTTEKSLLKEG

IC50 [1] [nM]	Compound	IC50 [2] [µM]
> 10000	CC(C)(C(=O)N[C@H]1CC[C@H](c2ccnc3ccccc32)CC1)c1ccccc1 [Example 43, 2-methyl-2-phenyl-N-(4-(quinolin-4-yl)cyclohexyl)propanamide]	> 10
1260	O=C(NCc1ccccc1)[C@H]1CC[C@@H](c2ccnc3ccccc32)CC1 [Example 46]	> 10
